Results from the supplement of paper PMC10126150.
Sequences with one replicate were seen in a single cluster, so their values are uncertain.

Test system: ATP
Assay: switch fluorescence ratio, 500 uM ATP over buffer (Cy3 cluster intensity, sum of 5 cycles each) (fold (ratio)); higher = stronger signal-on switching upon ATP binding; sequences stand for … in TCGTCGGCAGCGTCAGATGTGTATAAGAGACAGTTTTTTTTTTTTTTTTTTTTTTTTT…TC
Conditions: aptamer strand: ATP DNA aptamer (quencher-CACCTGGGGGAGTATTGCGGAGGAAGG + anchor), 100 nM annealed; ATP concentration: 500 uM; one replicate
In short: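 Clusters with intensities outside 100-1000 RFU were excluded. The remaining Cy3-labelled switching-strand clusters on a modified Illumina MiSeq flow-cell had been annealed to 100 nM quencher-labelled ATP aptamer and imaged in selection buffer, then after 15 min with 500 uM ATP at 22 °C, for five cycles separated by NaOH stripping and re-annealing. The fluorescence ratio, averaged per switch-domain sequence, is each cluster's summed target-cycle Cy3 intensity over its summed buffer-cycle Cy3 intensity.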
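Note: ATP exposure 15 min at 22 °C before imaging.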

Sequence | switch fluorescence ratio
AGCCCCCCTG | 1.69
CTGTAACAG | 1.03
TAGGGATTGT | 1.04
ATACGAGTCT | 1
TCGTGATATA | 0.997
TACTGTCACG | 1.28
AGTTATCACC | 1.06
GACGCCGTTA | 0.984
GGTAAGGGGC | 1.02
CTTTTGAAAG | 0.955
GGACTCAAGC | 1.08
TTATCAGGAA | 1.01
TGCTCAGGGG | 1.37
TCAGCCATTC | 1.15
ATCACTTCTT | 0.994
AATGTCAAC | 1.03
AGATCTGGTC | 1.02
TATGCGAAGA | 1.07
TGGTTACGGA | 1.02
TAGCACGGGT | 1.03
TCGGGCTAGG | 0.966
TCACCCCGTC | 1.04
GGAGCCGATA | 1.15

Sequence | switch fluorescence ratio
GAACTAACAT | 1.12
ATACGGAGTC | 0.953
GTAATGATG | 1.02
CCTCGGACTG | 1.15
AGGTGATGGC | 0.955
AATTAGGTCT | 0.982
CAGGACCTCA | 1.06
CGTACGCGAA | 1.26
ACTATTTACG | 1.09
CCTTTGGCAT | 1.04
TATCTGCCGT | 1.04
TTGCGGATGT | 0.967
GGCGTATCT | 0.966
TACGAGACGC | 1.16
ATGACACGGT | 1.07
AGTAGGATGT | 0.983
TTCTGCTTTT | 1.2
GCCCCTCATC | 1.05
AGGTTAGAGC | 0.941
AAGGCTACAA | 1.04
TACAAATACC | 1.05
GCTCGCAGCA | 1.03
ACTCTTTTAA | 1.04

Sequence | switch fluorescence ratio
GGGCTTGAGC | 1.01
GGCACGGAGC | 1.06
GACGCGGAAA | 1.62
AATGGGGTCG | 0.942
TCCATGGGAG | 1.02
TACGAAAGCA | 1.06
TAAATATTCA | 1.06
ATAAGCTATT | 0.996
TTCATTTCA | 1.01
GAACGTGGA | 0.99
TTAGTTTT | 0.953
GAAGAGGGCG | 1.04
TAGAACAAGA | 1.01
GGCGAATGAG | 0.983
CAGGGGACAG | 1.04
TAGACCGTAA | 1.12
CAGTGATGCC | 0.983
ACCGCCATCC | 2.39
TTAGTGTTCG | 0.977
GACTGGAAGC | 1.03
AAAAGCGATG | 0.989
ATTTATTACG | 0.975
CAGTTCCGAC | 1.26

Sequence | switch fluorescence ratio
CATGGACAGG | 0.992
CTTGGTACAA | 1
CAGTCTCTCA | 0.974
ATGTAGTCTA | 0.993
AGACAAGAGT | 1.01
AAGAAGTTTC | 0.996
AATTGCGCTT | 1.05
CCCGAAGTAA | 1.58
GGTAGCGCAA | 1.93
TATCGTCGAG | 0.968
GGGCTCCTTT | 0.976
ACGGCTAAGC | 1.02
AATGCTTGAC | 1.05
CTAGAAGTTG | 0.998
GATACGTACC | 1.77
GCTGTGTGCC | 0.975
GTGATACATG | 0.988
TCAAATTCTT | 0.978
GTCGGTTGAT | 0.941
ACTGGGATTT | 1.01
AATGCCCTGC | 0.979
GGGACTTGAA | 1
ACTAGAGGTG | 1.13

Sequence | switch fluorescence ratio
TTAGAGTTGA | 1
TTTTCTTGC | 0.998
CCAGTCCCTG | 1.04
GGGGCCCGGT | 0.948
CGCCCCGACG | 1.42
GGCCTTGTAT | 0.998
GGTCCCAGCT | 0.984
GGAGCTTGA | 1.39
GGATCAGCCC | 1.05
TTTTCAA | 0.993
GCCAGCGGTG | 1.07
TCTGAGCTGG | 1.09
CCGGATGTGT | 1.04
TGTGAGTCCG | 1.03
TGCATGGGTA | 1.03
CCGACCGTAG | 3.01
TTCCGGACGG | 0.982
CGTAGCGTTA | 1.54
AATTAGTTTT | 0.951
TGAGTTGACG | 0.967
ATCTTTAGGG | 0.969
TGCCCATGTC | 0.946
CGTGAGCGG | 1.02

Sequence | switch fluorescence ratio
TAGTCTCCTA | 0.937
ATTTTACCGA | 1.05
ACTAACATGT | 1.01
AATCTCGGGC | 0.989
GAGCAGGCAC | 1.1
ATCTCAATGT | 1.04
AATCATGA | 0.964
AAAACTGTAG | 1.06
ATGTTACTT | 1.04
CTACAACTTA | 1
CACTCACGTC | 1.43
TTCGGCTGCT | 0.958
CAATATAATA | 0.998
ATCCTCAAGC | 1.92
GCGCCCCGTA | 1.03
TCGGTTGCAC | 1.04
ACTCTTAGAA | 1.01
TTTTCGATAT | 1.03
GTTCGAATTT | 0.997
GCGCAGTAAC | 3.03
GAGAAAGTAC | 1.29
CTTGGTA | 0.975
AGGCAATTAA | 1.12

Sequence | switch fluorescence ratio
ACCAATATGA | 1.08
ACGATTTCCT | 1.04
GCTAATTGA | 0.981
TCTGAGGTCA | 0.972
TTGAGCGGTG | 1.02
AGGGGATCAC | 0.989
TAAACGAATC | 0.984
GGTCGGAGCC | 0.978
GGGTGGTTCA | 1.01
GTGTTCGCA | 0.999
AAGCTGGATA | 0.949
GTGATTATTC | 1
TGGACTCGGG | 0.968
CCCCGTTTTG | 1.1
TGAACGGCTC | 1.03
ACTGTCTAGG | 1.01
ACGGGATGTT | 1.02
GCAGTCTG | 0.946
AAGCTGGAG | 1.09
CACGTCTGTA | 1
